Test results from US11001590B2, “Pyrazolopyrimidine derivatives” (BAYER ANIMAL HEALTH GMBH, priority 2016, dated 2021).
Some of these results come from one statement about several compounds together. At least one compound was matched to its structure with a doubt left.

System: Dirofilaria immitis microfilariae
Assay: In vitro assay 3: Dirofilaria immitis microfilariae (DIROIM L1), motility
Settings: reduction of motility vs negative control; 72 h incubation

SMILES | EC50
Cc1nn2c(N(C)CC[S+](C)[O-])c(C(=O)NC3CCOc4ccccc43)cnc2c1-c1cc(Cl)cc(Cl)c1 (mixture of isomers) [Example 540] | < 0.1 ppm
Cc1ccc2c(c1)C(NC(=O)c1cnc3c(-c4c(F)cccc4Cl)c(C)nn3c1C(C)C)CCO2 (racemic) [Example 237] | < 1 ppm
Cc1nn2c(C(C)C)c(C(=O)NC3CCOc4ccc(F)cc43)cnc2c1-c1c(F)cccc1Cl (racemic) [Example 254] | < 1 ppm
Cc1nn2c(C)c(C(=O)N[C@H]3CCCc4ccccc43)cnc2c1-c1ccccc1Cl [Example 9] | < 1 ppm
Cc1nn2c(C)c(C(=O)N[C@H]3CCc4ccccc43)cnc2c1-c1ccccc1Cl [Example 14] | < 1 ppm
CC(C)c1c(C(=O)N[C@H]2CCc3ccccc32)cnc2c(-c3ccccc3Cl)cnn12 [Example 24] | < 1 ppm
Cc1c(C(=O)N[C@H]2CCCc3ccccc32)cnc2c(-c3ccccc3Cl)cnn12 [Example 42] | < 10 ppm
CC(C)c1c(C(=O)N[C@H]2CCc3ccccc32)cnc2c(-c3ccc(Cl)cc3)c(C(F)(F)F)nn12 [Example 49] | < 10 ppm
Cc1nn2c(C(C)C)c(C(=O)N[C@H]3CCOc4ccc(Cl)cc43)cnc2c1-c1ccccc1F [Example 93] | < 10 ppm
Cc1nn2c(C(C)C)c(C(=O)N[C@H]3CCOc4ccc(Cl)cc43)cnc2c1-c1c(F)cccc1F [Example 97] | < 1 ppm
Cc1nn2c(C(C)C)c(C(=O)N[C@H]3CCOc4ccc(Cl)cc43)cnc2c1-c1ccccc1Cl [Example 104] | < 0.1 ppm
Cc1ccc2c(c1)[C@@H](NC(=O)c1cnc3c(-c4ccccc4Cl)c(C)nn3c1C(C)C)CCC2 [Example 111] | < 1 ppm
CC(C)c1c(C(=O)N[C@H]2CCc3ccccc32)cnc2c(-c3ccc(F)nc3)c(C(F)(F)F)nn12 [Example 161] | < 10 ppm
CC(C)c1c(C(=O)N[C@H]2CCc3ccccc32)cnc2c(-c3ccc(F)cc3)c(C(F)(F)F)nn12 [Example 162] | < 10 ppm
CC(C)c1c(C(=O)N[C@H]2CCc3ccccc32)cnc2c(-c3cnc(F)c(F)c3)c(C(F)(F)F)nn12 [Example 163] | < 10 ppm
CC(C)c1c(C(=O)N[C@H]2CCc3ccccc32)cnc2c(-c3ccc(Cl)nc3)c(C(F)(F)F)nn12 [Example 164] | < 10 ppm
Cc1nn2c(C(C)C)c(C(=O)N[C@H]3CCOc4ccccc43)cnc2c1-c1ccc(C(F)(F)F)c(F)c1 [Example 187] | < 1 ppm
CC(C)Sc1nn2c(C(C)C)c(C(=O)N[C@H]3CCOc4ccccc43)cnc2c1-c1cc(Cl)cc(Cl)c1 [Example 198] | < 10 ppm
CC(C)Sc1nn2c(C(C)C)c(C(=O)N[C@H]3CCc4ccccc43)cnc2c1-c1cc(Cl)cc(Cl)c1 [Example 199] | < 10 ppm
CCSc1nn2c(C(C)C)c(C(=O)N[C@H]3CCOc4ccccc43)cnc2c1-c1cc(Cl)cc(Cl)c1 [Example 200] | < 10 ppm
CCSc1nn2c(C(C)C)c(C(=O)N[C@H]3CCc4ccccc43)cnc2c1-c1cc(Cl)cc(Cl)c1 [Example 201] | < 10 ppm
CC(C)c1c(C(=O)N[C@H]2CCc3ccccc32)cnc2c(-c3cc(Cl)cc(Cl)c3)c(S(=O)(=O)C(C)C)nn12 [Example 214] | < 10 ppm
Cc1nn2c(C(C)C)c(C(=O)N[C@H]3CCOc4ccccc43)cnc2c1-c1ccc2c(c1)CCC2=O [Example 250] | < 10 ppm

SMILES | EC50
Cc1nc2c(-c3cc(Cl)cc(Cl)c3)c(C)nn2c(C)c1C(=O)N[C@H]1CCOc2ccccc21 [Example 268] | < 10 ppm
COc1c(F)ccc(-c2c(C(F)F)nn3c(C4CC4)c(C(=O)N[C@H]4CCOc5ccccc54)cnc23)c1F [Example 269] | < 1 ppm
O=C(N[C@H]1CCOc2ccccc21)c1cnc2c(-c3cccc(F)c3F)c(C(F)F)nn2c1C1CC1 [Example 270] | < 1 ppm
O=C(N[C@H]1CCOc2ccccc21)c1cnc2c(-c3c(Cl)cccc3Cl)c(C(F)F)nn2c1C1CC1 [Example 271] | < 1 ppm
O=C(N[C@H]1CCOc2ccccc21)c1cnc2c(-c3cc(Cl)c(F)c(Cl)c3)c(C(F)F)nn2c1C1CC1 [Example 272] | < 1 ppm
O=C(N[C@H]1CCOc2ccccc21)c1cnc2c(-c3cccc(Cl)c3)c(C(F)F)nn2c1C1CC1 [Example 273] | < 0.1 ppm
O=C(N[C@H]1CCOc2ccccc21)c1cnc2c(-c3ccc(F)c(F)c3)c(C(F)F)nn2c1C1CC1 [Example 274] | < 1 ppm
CC(C)c1c(C(=O)N[C@H]2CCOc3ccccc32)cnc2c(-c3cccc(Cl)c3)c(Cl)nn12 [Example 275] | < 1 ppm
CC(C)c1c(C(=O)N[C@H]2CCOc3ccccc32)cnc2c(-c3cccc(Cl)c3)c(C(F)F)nn12 [Example 276] | < 0.1 ppm
CC(C)c1c(C(=O)N[C@H]2CCOc3ccccc32)cnc2c(-c3c(F)ccc(Cl)c3F)c(C(F)F)nn12 [Example 277] | < 0.1 ppm
CC(C)c1c(C(=O)N[C@H]2CCOc3ccccc32)cnc2c(-c3ccc(F)c(F)c3)c(C(F)F)nn12 [Example 278] | < 10 ppm
CC(C)c1c(C(=O)N[C@H]2CCOc3ccccc32)cnc2c(-c3cc(Cl)c(F)c(Cl)c3)c(C(F)F)nn12 [Example 282] | < 0.1 ppm
COc1c(F)ccc(-c2c(C)nn3c(C4CC4)c(C(=O)N[C@H]4CCOc5ccccc54)cnc23)c1F [Example 284] | < 0.1 ppm
CC(C)c1c(C(=O)N[C@H]2CCc3ccccc32)cnc2c(-c3cccc(F)c3F)c(Cl)nn12 [Example 285] | < 0.1 ppm
CC(C)c1c(C(=O)N[C@H]2CCCc3ccccc32)cnc2c(-c3cccc(F)c3F)c(Cl)nn12 [Example 286] | < 10 ppm
Cc1nn2c(C(C)C)c(C(=O)N[C@H]3CCCc4ccccc43)cnc2c1-c1cnn(CC(F)(F)F)c1 [Example 359] | < 10 ppm
Cc1nn2c(C(C)C)c(C(=O)N[C@H]3CCc4ccccc43)cnc2c1-c1cccc(C[S+](C)[O-])c1 (some centres unmarked) [Example 380] | < 10 ppm
Cc1nn2c(C(C)C)c(C(=O)N[C@H]3CCOc4ccccc43)cnc2c1-c1cnn(CC(F)(F)F)c1 [Example 401] | < 10 ppm
Cc1nn2c(C(F)(F)F)c(C(=O)N[C@H]3CCc4ccccc43)cnc2c1-c1c(F)cccc1F [Example 410] | < 10 ppm
CC(C)c1c(C(=O)N[C@H]2CCc3ccccc32)cnc2c(-c3cccc(Cl)c3)c(C3CC3)nn12 [Example 411] | < 10 ppm
Cc1nn2c(C(F)(F)F)c(C(=O)N[C@H]3CCc4ccccc43)cnc2c1-c1ccccc1Cl [Example 412] | < 10 ppm
CC(C)c1c(C(=O)N[C@H]2CCc3ccccc32)cnc2c(-c3ccccc3Cl)c(C3CC3)nn12 [Example 414] | < 10 ppm
CC(C)c1c(C(=O)N[C@H]2CCc3ccccc32)cnc2c(-c3cccc(C(F)(F)F)c3)c(C3CC3)nn12 [Example 415] | < 10 ppm

SMILES | EC50
CC(C)c1c(C(=O)N[C@H]2CCc3ccccc32)cnc2c(-c3cccc(F)c3)c(C3CC3)nn12 [Example 416] | < 10 ppm
Cc1nn2c(C3CC3)c(C(=O)N[C@H]3CCc4ccccc43)cnc2c1-c1cnn(CC(F)(F)F)c1 [Example 421] | < 10 ppm
Cc1nn2c(C(C)C)c(C(=O)N[C@H]3CCc4ccccc43)cnc2c1-n1cccn1 [Example 426] | < 10 ppm
Cc1nn2c(C3CC3)c(C(=O)N[C@H]3CCOc4ccccc43)cnc2c1-c1cnn(CC(F)(F)F)c1 [Example 468] | < 10 ppm
CCc1c(C(=O)N[C@H]2CCOc3ccccc32)cnc2c(-c3cccc(F)c3F)c(C)nn12 [Example 477] | < 1 ppm
CCc1c(C(=O)N[C@H]2CCOc3ccccc32)cnc2c(-c3c(F)cccc3Cl)c(C)nn12 [Example 479] | < 0.1 ppm
Cc1nn2c(C(C)C)c(C(=O)N[C@H]3CCOc4ccccc43)cnc2c1-c1cccc2[nH]ccc12 [Example 481] | < 1 ppm
Cc1nn2c(C(C)C)c(C(=O)N[C@H]3CCOc4ccccc43)cnc2c1-c1cccc2c1ccn2C [Example 483] | < 1 ppm
CCc1c(C(=O)N[C@H]2CCOc3ccccc32)cnc2c(-c3cccc(Cl)c3Cl)c(C)nn12 [Example 484] | < 0.1 ppm
CCc1c(C(=O)N[C@H]2CCOc3ccccc32)cnc2c(-c3ccc(Cl)cc3Cl)c(C)nn12 [Example 485] | < 0.1 ppm
CCc1c(C(=O)N[C@H]2CCOc3ccccc32)cnc2c(-c3cc(Cl)ccc3Cl)c(C)nn12 [Example 486] | < 0.1 ppm
CCc1c(C(=O)N[C@H]2CCOc3ccccc32)cnc2c(-c3ccc(F)c(F)c3)c(C)nn12 [Example 487] | < 1 ppm
CCc1c(C(=O)N[C@H]2CCOc3ccccc32)cnc2c(-c3cccc(Cl)c3)c(C)nn12 [Example 488] | < 1 ppm
CCc1c(C(=O)N[C@H]2CCOc3ccccc32)cnc2c(-c3ccc(F)c(F)c3F)c(C)nn12 [Example 490] | < 0.1 ppm
CCc1c(C(=O)N[C@H]2CCOc3ccccc32)cnc2c(-c3c(Cl)cccc3Cl)c(C)nn12 [Example 491] | < 1 ppm
O=C(N[C@H]1CCOc2ccccc21)c1cnc2c(-c3cc(Cl)ccc3Cl)c(C(F)F)nn2c1C1CC1 [Example 492] | < 0.1 ppm
O=C(N[C@H]1CCOc2ccccc21)c1cnc2c(-c3c(F)cccc3F)c(C(F)F)nn2c1C1CC1 [Example 493] | < 0.1 ppm
CC(C)c1c(C(=O)N[C@H]2CCOc3ccccc32)cnc2c(-c3cc(Cl)ccc3Cl)c(C(F)F)nn12 [Example 494] | < 0.1 ppm
CC(C)c1c(C(=O)N[C@H]2CCOc3ccccc32)cnc2c(-c3c(F)cccc3F)c(C(F)F)nn12 [Example 495] | < 0.1 ppm
CCc1c(C(=O)N[C@H]2CCOc3ccccc32)cnc2c(-c3cc(Cl)c(F)c(Cl)c3)c(C)nn12 [Example 497] | < 1 ppm
O=C(N[C@H]1CCOc2ccccc21)c1cnc2c(-c3ccc(F)c(F)c3F)c(C(F)F)nn2c1C1CC1 [Example 498] | < 1 ppm
O=C(N[C@H]1CCOc2ccccc21)c1cnc2c(-c3c(F)cccc3Cl)c(C(F)F)nn2c1C1CC1 [Example 499] | < 1 ppm
